The whole screen tested about 3,200 compounds, of which about 75 (2%) showed an effect of 50% or more. The list shows a part of the results.
test system: T1, S. aureus MSSA476; parameters: species or system S. aureus MSSA476 (TSB) or V. cholerae SAD30 (LB); 384-well bacterial growth screen at 25 uM, OD600 relative to DMSO control; conditions: relative growth, OD600, TSB; 25 µM; inhibitor
T1 construct: MSSA476

Structure (SMILES) | % of control remaining [%]
N#CC(=CNc1ccc(F)cc1)C(=O)NCc1ccccc1 [8-E20, N-benzyl-2-cyano-3-[(4-fluorophenyl)amino]prop-2-enamide] | 89.2946
Cc1ccc([N+](=O)[O-])cc1N1C(=O)C=CC1=O [10-O14, 1-(2-methyl-5-nitrophenyl)-2,5-dihydro-1H-pyrrole-2,5-dione] | 119.687
CC(C)(C)OC(=O)[C@H]1C[C@@H]1C(=O)CCl (racemic) [10-C13, rac-tert-butyl (1R,2R)-2-(2-chloroacetyl)cyclopropane-1-carboxylate] | 128.438
CN(C)S(=O)(=O)c1ccc(Cl)c(NC(=O)CCl)c1 [6-H12, 2-chloro-N-[2-chloro-5-(dimethylsulfamoyl)phenyl]acetamide] | 88.439
Cc1cccc2[nH]cc(C(=O)CCl)c12 [10-H09, 2-chloro-1-(4-methyl-1H-indol-3-yl)ethan-1-one] | 97.5
CC(C)(C)N(Cc1ccccc1)C(=O)CCl [5-H20, N-benzyl-N-tert-butyl-2-chloroacetamide] | 81.9672
C=CC(=O)N1CCOC(c2ccccc2Cl)C1 (stereo not drawn) [1-P20, 1-[2-(2-chlorophenyl)morpholin-4-yl]prop-2-en-1-one] | 97.4066
C=CC(=O)NCc1ccccc1-n1ccc(C)n1 [1-J19, N-{[2-(3-methyl-1H-pyrazol-1-yl)phenyl]methyl}prop-2-enamide] | 110.066
C=CC(=O)NC(c1nnc2n1CCC2)C(C)C (stereo not drawn) [3-P07, N-(2-methyl-1-{5H,6H,7H-pyrrolo[2,1-c][1,2,4]triazol-3-yl}propyl)prop-2-enamide] | 123.988
Cl.O=C(CCl)NCC(c1nccs1)N1CCCC1 (stereo not drawn) [6-D11, 2-chloro-N-[2-(pyrrolidin-1-yl)-2-(1,3-thiazol-2-yl)ethyl]acetamide hydrochloride] | 88.0976
N#CC(=Cc1cccc2ccccc12)C(=O)NCc1ccc(Cl)cc1 [8-J09, N-[(4-chlorophenyl)methyl]-2-cyano-3-(naphthalen-1-yl)prop-2-enamide] | 90.9544
C=CS(=O)(=O)Nc1ccccc1 [10-C07, N-phenylethene-1-sulfonamide] | 117.188
C=CC(=O)N(C)Cc1cc2ccccc2o1 [3-I09, N-[(1-benzofuran-2-yl)methyl]-N-methylprop-2-enamide] | 108.663
O=C(CCl)Cc1ccc(Cl)cc1Cl [10-A15, 1-chloro-3-(2,4-dichlorophenyl)propan-2-one] | 112.188
CC(Cl)C(=O)N1CCOC(c2ccc(Cl)s2)C1 (stereo not drawn) [6-N07, 2-chloro-1-[2-(5-chlorothiophen-2-yl)morpholin-4-yl]propan-1-one] | 105.512
C=CC(=O)N1CCC(C(=O)NCc2ccc(C(N)=O)nc2)CC1 [3-N05, 5-({[1-(prop-2-enoyl)piperidin-4-yl]formamido}methyl)pyridine-2-carboxamide] | 97.1702
C=CC(=O)NC1CCSC(C)C1 (stereo not drawn) [1-J06, N-(2-methylthian-4-yl)prop-2-enamide] | 108.308
CC(Cl)C(=O)Nc1sccc1C(N)=O (stereo not drawn) [5-C21, 2-(2-chloropropanamido)thiophene-3-carboxamide] | 96.9035
C=CC(=O)NCc1cc(C(F)(F)F)on1 [3-F20, N-{[5-(trifluoromethyl)-1,2-oxazol-3-yl]methyl}prop-2-enamide] | 99.9565
C=CC(=O)N1CCC(C(=O)NCc2cc(C)c[nH]c2=O)CC1 [3-H03, N-[(5-methyl-2-oxo-1,2-dihydropyridin-3-yl)methyl]-1-(prop-2-enoyl)piperidine-4-carboxamide] | 83.5873
C=CC(=O)N1CCOC(CNC(=O)NC)C1 (stereo not drawn) [3-A18, 3-methyl-1-{[4-(prop-2-enoyl)morpholin-2-yl]methyl}urea] | 112.843
COc1ccc(C=C(C#N)C(=O)NC2CCCCC2)cc1O [8-H13, 2-cyano-N-cyclohexyl-3-(3-hydroxy-4-methoxyphenyl)prop-2-enamide] | 119.834
CC(Cl)C(=O)NCCC1=CCCCCC1 (stereo not drawn) [5-N19, 2-chloro-N-[2-(cyclohept-1-en-1-yl)ethyl]propanamide] | 99.4536

Structure (SMILES) | % of control remaining [%]
CC(Cl)C(=O)NC(=O)Nc1ccccc1 (stereo not drawn) [5-I21, 3-(2-chloropropanoyl)-1-phenylurea] | 105.647
C=CC(=O)NCC(F)(F)C1(OC)CCC1 [3-L07, N-[2,2-difluoro-2-(1-methoxycyclobutyl)ethyl]prop-2-enamide] | 118.415
Cc1nn(CC(C)C)c(Cl)c1C1CCCN1C(=O)C(C)Cl (stereo not drawn) [7-P19, 2-chloro-1-{2-[5-chloro-3-methyl-1-(2-methylpropyl)-1H-pyrazol-4-yl]pyrrolidin-1-yl}propan-1-one] | 108.32
COCc1ncc2c(n1)CC1CCC2N1C(=O)C(C)Cl (stereo not drawn) [7-M20, 2-chloro-1-[5-(methoxymethyl)-4,6,12-triazatricyclo[7.2.1.0,2,7]dodeca-2,4,6-trien-12-yl]propan-1-one] | 91.9937
CNC(=O)c1cc(C(=O)CCl)cn1C [10-G10, 4-(2-chloroacetyl)-N,1-dimethyl-1H-pyrrole-2-carboxamide] | 131.563
CNC(=O)c1ccc(C2CCCCN2C(=O)C(C)Cl)n1C (stereo not drawn) [7-N15, 5-[1-(2-chloropropanoyl)piperidin-2-yl]-N,1-dimethyl-1H-pyrrole-2-carboxamide] | 99.843
CC(Cl)C(=O)Nc1sc2c(c1C#N)CCCCC2 (stereo not drawn) [5-B20, 2-chloro-N-{3-cyano-4H,5H,6H,7H,8H-cyclohepta[b]thiophen-2-yl}propanamide] | 104.918
C=CC(=O)N(CC)CC(=O)N1CC[S+]([O-])C(C)(C)CC1 (stereo not drawn) [3-K21, N-[2-(7,7-dimethyl-1-oxo-1lambda4,4-thiazepan-4-yl)-2-oxoethyl]-N-ethylprop-2-enamide] | 91.2495
C=CC(=O)N1CCC(Cc2nc(C3CCC3)no2)CC1 [2-A06, 1-{4-[(3-cyclobutyl-1,2,4-oxadiazol-5-yl)methyl]piperidin-1-yl}prop-2-en-1-one] | 129.504
CC(=Cc1ccccc1)C=C(C#N)C(=O)Nc1ccc2c(c1)OCCO2 [9-J07, 2-cyano-N-(2,3-dihydro-1,4-benzodioxin-6-yl)-4-methyl-5-phenylpenta-2,4-dienamide] | 116.554
N#CC(=Cc1ccc(C#N)cc1)C(=O)Nc1ccc(F)c(Cl)c1 [9-A22, N-(3-chloro-4-fluorophenyl)-2-cyano-3-(4-cyanophenyl)prop-2-enamide] | 84.4944
C=CC(=O)N(C)CC(=O)NC1CCCN(c2ccc(F)cc2F)C1=O (stereo not drawn) [2-P22, N-({[1-(2,4-difluorophenyl)-2-oxopiperidin-3-yl]carbamoyl}methyl)-N-methylprop-2-enamide] | 103.742
O=C(NCc1ccco1)C1CCCN1C(=O)CCl (stereo not drawn) [5-N05, 1-(2-chloroacetyl)-N-[(furan-2-yl)methyl]pyrrolidine-2-carboxamide] | 93.6248
C=CC(=O)NCCCN1CCCS1(=O)=O [3-H19, N-[3-(1,1-dioxo-1lambda6,2-thiazolidin-2-yl)propyl]prop-2-enamide] | 86.0253
C=CC(=O)NCc1ccc(N2CC(C)CS2(=O)=O)cc1 (stereo not drawn) [3-J19, N-{[4-(4-methyl-1,1-dioxo-1lambda6,2-thiazolidin-2-yl)phenyl]methyl}prop-2-enamide] | 89.1598
Cn1c(N)c(N2C(=O)C=CC2=O)c(=O)[nH]c1=O [10-P05, 6-amino-5-(2,5-dioxo-2,5-dihydro-1H-pyrrol-1-yl)-1-methyl-1,2,3,4-tetrahydropyrimidine-2,4-dione] | 104.688
C=CC(=O)NC(c1ccc(C)cc1)C(C)S(C)(=O)=O (stereo not drawn) [2-A10, N-[2-methanesulfonyl-1-(4-methylphenyl)propyl]prop-2-enamide] | 148.651
N#CC(=Cc1ccccc1OCc1ccccc1)C(=O)NC(N)=O [8-F05, (2-{[2-(benzyloxy)phenyl]methylidene}-2-cyanoacetyl)urea] | 126.141
C=CC(=O)N(C)CC(=O)N1CCC(c2nc3c(s2)CCCC3)CC1 [2-N04, N-methyl-N-{2-oxo-2-[4-(4,5,6,7-tetrahydro-1,3-benzothiazol-2-yl)piperidin-1-yl]ethyl}prop-2-enamide] | 100.261
C=CC(=O)NC1(c2ccccc2)CCCC1 [1-O15, N-(1-phenylcyclopentyl)prop-2-enamide] | 112.879
CC(Cl)C(=O)Nc1ccc(OCc2ccccc2)cc1 (stereo not drawn) [6-O13, N-[4-(benzyloxy)phenyl]-2-chloropropanamide] | 85.3659
CC(C)Oc1ccccc1C=C(C#N)C(=O)Nc1ccccc1 [8-M17, 2-cyano-N-phenyl-3-[2-(propan-2-yloxy)phenyl]prop-2-enamide] | 82.6556
